{"source": "PubChem BioAssay AID1768", "about": "(National Center for Advancing Translational Sciences (NCATS), 2009)", "note": "Among all 270,000 compounds or so, about 620 (0.23%) were called active. Inconclusive means that the source gave no clear call. Such entries were picked first, then a sample of the others. Calls follow the shape of the dose curve; as a rule, active = well fitted inhibition curve with a large enough effect in the polarisation, with a control signal flat (not every such curve was filed as active); inconclusive = small, poorly fitted or top-dose-only effect, or effect the other way, or a change in a side signal; inactive = no such curve, though single readings can be large or run the other way; the % refers to the polarisation. Potencies of inconclusive entries are doubtful fits and often do not repeat. “Side channel” marks fits to a control or component signal instead of the main read-out. Potency is read from the fitted curve at half-maximal effect; tags tell the direction and shape of the fitted curve or compound fluorescence and quenching.", "data": [{"biological_target": "Menin (Homo sapiens) (UniProt O00255)", "sequence (O00255 whole entry, looked up)": "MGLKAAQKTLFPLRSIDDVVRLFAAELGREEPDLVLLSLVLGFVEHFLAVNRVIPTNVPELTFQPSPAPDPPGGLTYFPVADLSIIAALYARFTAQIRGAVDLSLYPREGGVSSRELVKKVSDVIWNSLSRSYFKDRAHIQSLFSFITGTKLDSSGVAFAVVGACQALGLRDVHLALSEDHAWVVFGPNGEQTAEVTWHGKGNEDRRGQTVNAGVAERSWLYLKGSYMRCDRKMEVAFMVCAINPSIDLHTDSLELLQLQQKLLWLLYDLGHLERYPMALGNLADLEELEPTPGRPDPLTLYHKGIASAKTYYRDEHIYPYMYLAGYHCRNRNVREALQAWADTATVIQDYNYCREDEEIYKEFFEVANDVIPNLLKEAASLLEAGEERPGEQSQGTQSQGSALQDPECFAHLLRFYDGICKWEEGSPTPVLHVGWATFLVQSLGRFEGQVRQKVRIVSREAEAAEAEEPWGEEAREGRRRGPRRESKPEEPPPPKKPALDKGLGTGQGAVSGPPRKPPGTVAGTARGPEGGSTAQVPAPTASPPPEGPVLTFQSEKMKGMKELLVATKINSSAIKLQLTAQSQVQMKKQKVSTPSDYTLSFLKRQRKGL", "assay": "qHTS Assay for Inhibitors Targeting the Menin-MLL Interaction in MLL Related Leukemias: Competition With Texas Red Labeled MLL-derived Mutant Peptide", "settings": "fluorescence polarization; series mostly up to 61.6 µM", "values": [{"compound": "COc1ccc(/C=C(\\C#N)c2nc3ccc(C)cc3[nH]2)cc1Oc1ccc(C(F)(F)F)cc1[N+](=O)[O-]", "Potency": "inconclusive: 14.1 µM [quencher, side channel, single point]"}, {"compound": "CSc1nsc2nc(=O)c(/C=C3\\C(C)=Nc4ccccc43)c(N)n12", "Potency": "inconclusive: 20 µM [quencher, side channel, partial curve]"}, {"compound": "CC(=O)Nc1ccc(NC(=O)C2c3ccccc3Oc3ccccc32)cc1", "Potency": "inconclusive: 39.8 µM [quencher, side channel, single point]"}, {"compound": "c1ccn2cc(-c3ccc4c(c3)OCO4)cc2c1", "Potency": "inconclusive: 22.4 µM [quencher, side channel, partial curve]"}, {"compound": "CCOc1cc(S(=O)(=O)NCCc2ccc(OC)c(OC)c2)c(OCC)cc1-n1cnnn1", "Potency": "inactive"}, {"compound": "C[C@H]1CCC[C@]2(C)C[C@H]3OC(=O)C(CN4CCCCCC4)[C@H]3C=C12", "note": "(some centres not stated)", "Potency": "inconclusive: 31.6 µM [inhibitor, partial curve]"}, {"compound": "COc1ccc(N=C2SC(CC(=O)Nc3cccc(Cl)c3)C(=O)N2Cc2ccco2)cc1", "note": "(configuration not stated)", "Potency": "inconclusive: 10 µM [quencher, side channel, partial curve]"}, {"compound": "CCOP(=O)(OCC)c1nc(-c2ccc(Cl)cc2Cl)oc1N1CCCCC1", "Potency": "inconclusive: 1.58 µM [fluorescent, side channel, full curve, poor fit]"}, {"compound": "Nc1c2c(nc3cccc(Cl)c13)N(c1ccccc1)CC2", "Potency": "inconclusive: 20 µM [fluorescent, side channel, single point]"}, {"compound": "CCOc1nc(Nc2ccc(F)cc2)nc(N2CCN(c3ccc(OC)cc3)CC2)n1", "Potency": "inactive"}, {"compound": "Cc1ccc(C)c(Nc2c([N+](=O)[O-])cc(C(=O)N3CC(=O)Nc4ccccc43)cc2[N+](=O)[O-])c1", "Potency": "inconclusive: 8.91 µM [inhibitor, single point]"}, {"compound": "CC(/C=C/c1ccccc1)=N\\Nc1nc(-c2ccccc2)cs1", "Potency": "inconclusive: 12.6 µM [quencher, side channel, partial curve]"}, {"compound": "CCC(=O)NC(=S)Nc1ccc(NC(=O)c2cc3ccccc3o2)c(OC)c1", "Potency": "inconclusive: 8.91 µM [quencher, side channel, partial curve]"}, {"compound": "CC(C)CCNC(=O)c1ccc(CSCc2cccc(F)c2)o1", "Potency": "inconclusive: 39.8 µM [fluorescent, side channel, single point]"}, {"compound": "CC(Oc1ccc(Cl)cc1)C(=O)Nc1ccc(S(=O)(=O)N2CCOCC2)cc1", "note": "(configuration not stated)", "Potency": "inconclusive: 28.2 µM [quencher, side channel, single point]"}, {"compound": "CCOc1ccc2sc(NS(=O)(=O)c3ccc(OC)c(OC)c3)nc2c1", "Potency": "inconclusive: 28.2 µM [quencher, side channel, single point]"}, {"compound": "CN1CCN(S(=O)(=O)c2ccc(NC(=O)c3ccco3)cc2)CC1", "Potency": "inconclusive: 20 µM [quencher, side channel, single point]"}, {"compound": "COc1ccc(-c2cccc([C@H]3[C@@H]4C=CC[C@@H](C)[C@@H]4C(=O)N3Cc3ccccc3)c2)cc1", "Potency": "inconclusive: 3.98 µM [fluorescent, side channel, full curve]"}, {"compound": "Clc1ccc(/C=N/c2c(-c3ccc(Cl)cc3)nc3n2CCS3)cc1", "Potency": "inconclusive: 5.62 µM [quencher, side channel, partial curve]"}, {"compound": "CCOc1ccccc1CN1CCN(Cc2nc3c(s2)CCCC3)CC1CCO", "note": "(configuration not stated)", "Potency": "inconclusive: 15.8 µM [fluorescent, side channel, partial curve]"}, {"compound": "CC(C)NC(=S)N/N=C/c1c[nH]c2ccccc12", "Potency": "inconclusive: 14.1 µM [quencher, side channel, single point]"}, {"compound": "CCOC(=O)C1CCCN(C(=S)Nc2ccc(Nc3ccccc3)cc2)C1", "note": "(configuration not stated)", "Potency": "inconclusive: 31.6 µM [quencher, side channel, partial curve]"}, {"compound": "COc1cc(/C=N/NC(=O)c2cccc3ccccc23)cc(OC)c1OC", "Potency": "inconclusive: 35.5 µM [fluorescent, side channel, single point]"}, {"compound": "COc1ccc(C(=O)c2sc3nc(-c4ccccc4)ccc3c2N)cc1OC", "Potency": "inconclusive: 10 µM [quencher, partial curve]"}, {"compound": "O=C1C=CC(=O)C2=C1C1c3ccccc3C2c2ccccc21", "Potency": "inconclusive: 10 µM [quencher, side channel, partial curve]"}, {"compound": "O=c1[nH]n2c(=O)c3c([nH]c2c1N=Nc1cccc(C(F)(F)F)c1)CCCC3", "Potency": "inconclusive: 25.1 µM [quencher, side channel, partial curve]"}, {"compound": "CC(C)(C)c1cc(Br)c(O)c(N=Nc2ccc(S(=O)(=O)N3CCOCC3)cc2)c1", "Potency": "inconclusive: 25.1 µM [quencher, side channel, partial curve]"}, {"compound": "Oc1ccc(NCc2ccccc2OCc2ccccc2)cc1", "Potency": "inconclusive: 39.8 µM [quencher, side channel, single point]"}, {"compound": "COc1ccc(-c2n[nH]c(C)c2-c2cnn(-c3ccccc3)c2)c(O)c1C", "Potency": "inconclusive: 11.2 µM [quencher, side channel, partial curve]"}, {"compound": "COc1ccc(/C=N/Nc2nncc3ccccc23)c(OC)c1", "Potency": "inconclusive: 31.6 µM [quencher, side channel, partial curve]"}, {"compound": "CCCC[C@H](NC(=O)[C@H](CO)NC(=O)[C@H](Cc1ccc(O)cc1)NC(=O)[C@H](CO)NC(C)=O)C(=O)N[C@@H](CCC(=O)O)C(=O)N[C@@H](Cc1cnc[nH]1)C(=O)N[C@H](Cc1ccccc1)C(=O)N[C@@H](CCCNC(=N)N)C(=O)N[C@@H](Cc1c[nH]c2ccccc12)C(=O)NCC(=O)N[C@@H](CCCCN)C(=O)N1CCC[C@H]1C(=O)N[C@H](C(N)=O)C(C)C", "Potency": "inactive"}, {"compound": "CCOC(=O)COc1ccc2c3c(c(=O)oc2c1C)CCC3", "Potency": "inconclusive: 2.24 µM [inhibitor, full curve]"}, {"compound": "O=C(CCSc1ccccc1)N1CCN(c2ccccc2F)CC1", "Potency": "inconclusive: 10 µM [fluorescent, side channel, partial curve]"}, {"compound": "Cc1nn(C(C)C(=O)NCc2ccco2)c(=O)c2nn(-c3ccccc3)c(C)c12", "note": "(configuration not stated)", "Potency": "inconclusive: 12.6 µM [inhibitor, partial curve]"}, {"compound": "Cc1cc(C)c2oc(-c3ccc(C)c(NC(=S)NC(=O)/C=C/c4ccco4)c3)nc2c1", "Potency": "inconclusive: 12.6 µM [quencher, side channel, partial curve]"}, {"compound": "CCOC(=O)C1=C(SCC)c2cc3c(n2C1=O)CCCC3", "Potency": "inconclusive: 39.8 µM [inhibitor, single point]"}, {"compound": "CCN(CC)CCNC(=O)c1cc2c(-c3cccc(OC)c3)nn(C)c2s1", "Potency": "inconclusive: 25.1 µM [inhibitor, partial curve]"}, {"compound": "Cc1cccc(C)c1NC(=O)CCCSc1nnc(-c2ccc(Cl)cc2)n1-c1ccccc1", "Potency": "inconclusive: 0.891 µM [fluorescent, side channel, full curve, poor fit]"}, {"compound": "COc1c2c(cc3c1C(CC(O)Cc1ccccc1)N(C)CC3)OCO2", "note": "(configuration not stated)", "Potency": "inconclusive: 25.1 µM [fluorescent, side channel, partial curve]"}, {"compound": "COc1ccc(C(C)=O)cc1COC(=O)c1c(C)nn(-c2ccccc2)c1C", "Potency": "inconclusive: 7.08 µM [fluorescent, side channel, partial curve]"}, {"compound": "COc1ccc(C2Nc3ccccc3C(=O)N2Cc2ccco2)cc1COc1ccc(NC(C)=O)cc1", "note": "(configuration not stated)", "Potency": "inactive"}, {"compound": "O=C(CN(c1ccc2c(c1)OCCO2)S(=O)(=O)c1ccccc1)NCc1ccco1", "Potency": "inconclusive: 35.5 µM [inhibitor, single point]"}, {"compound": "O=C(c1ccco1)c1coc2c1cc(O)c1ccccc12", "Potency": "inconclusive: 15.8 µM [quencher, side channel, partial curve]"}, {"compound": "COC(=O)CC1C2(C)CC34OC5(C)O[C@@]6(C7/C(=C(/OC)C(C)C)C(=O)OC(c8ccoc8)[C@@]7(C)C(OC(=O)C(C)C)C(OC)[C@]6(O5)[C@@]13C)C(OC)[C@]4(OC)C2OC(C)=O", "note": "(some centres not stated)", "Potency": "inactive"}, {"compound": "Cn1c(O)c(/C=N/NC(=O)c2cc3ccccc3cc2O)c2ccccc21", "Potency": "inconclusive: 11.2 µM [quencher, side channel, partial curve]"}, {"compound": "CCCOc1ccc(C(=O)NNC(=S)NC(=O)c2cc(-c3ccccc3)nc3ccccc23)cc1", "Potency": "inconclusive: 17.8 µM [quencher, side channel, partial curve]"}, {"compound": "COc1ccc(OC)c(/C=N/NC2=NS(=O)(=O)c3ccccc32)c1", "Potency": "inconclusive: 5.62 µM [quencher, side channel, single point]"}, {"compound": "O=[N+]([O-])c1cc(-c2ccc(/C=N\\n3cnnc3)o2)cc([N+](=O)[O-])c1", "Potency": "inconclusive: 31.6 µM [quencher, side channel, partial curve]"}, {"compound": "COc1cc(OC)cc(C(=O)Nc2nc3ccc(S(C)(=O)=O)cc3s2)c1", "Potency": "inconclusive: 12.6 µM [quencher, side channel, partial curve]"}, {"compound": "COc1ccc(-n2nc(C(=O)NCC(=O)NC3CCCC(C)C3C)c3ccccc3c2=O)c(OC)c1", "note": "(configuration not stated)", "Potency": "inconclusive: 39.8 µM [fluorescent, side channel, single point]"}, {"compound": "COc1ccc(Cl)cc1NC(=O)NC1CCCCC1", "Potency": "inconclusive: 39.8 µM [quencher, side channel, single point]"}, {"compound": "CC(=O)OCC(=O)[C@@]1(O)CC[C@H]2[C@@H]3CCC4=CC(=O)CC[C@]4(C)[C@@H]3C(=O)C[C@@]21C", "Potency": "inconclusive: 17.8 µM [fluorescent, side channel, partial curve]"}]}]}
